Out of some 260,000 compounds screened, about 890 (0.34%) were called active. The shares of active, inactive and inconclusive entries below differ from those in the screen. The call rests on the fitted dose curve; in most records, active means well fitted activation curve with a large enough effect; inconclusive means small, poorly fitted or top-dose-only effect; inactive means no such curve, though single readings can be large or run the other way. A potency beside an inconclusive call is a rough fit, not a confirmed value.
Each compound was assayed against Pyruvate kinase PKM (Homo sapiens) (UniProt P14618) (assay: qHTS Assay for Activators of Human Muscle isoform 2 Pyruvate Kinase). Details: purified PKM2, Kinase-Glo ATP luminescence; Potency: activation; activation: at 57.5 µM (top of the series), 0% is enzyme alone, no compound.
Description: NIH Chemical Genomics Center [NCGC] Matthew G. Vander Heiden, M.D., Ph.D. [Harvard Medical School, 77 Avenue Louis Pasteur, Boston, MA 02115] MLPCN Grant: 1 R03 MH085679-01 NCGC Assay Overview: Human pyruvate kinase muscle 2 (hPK-M2) enzyme was supplied as a highly purified (>95% pure) preparation from Harvard Medical School and assayed for its ability to generate ATP from ADP using phosphoenolpyruvate (PEP) as a substrate. ATP generation was detected in a coupled reaction by luciferase-mediated luminescence, an ATP-dependent process. […] The enzyme was assayed at an intermediate level of activity to screen for both inhibitors and activators.
NCGC Assay Protocol Summary: Three uL of substrate mix (at r.t.) in assay buffer (50 mM Imidazole pH7.2, 50 mM KCl, 7 mM MgCl2, 0.01% Tween 20, 0.05% BSA) was dispensed into white solid bottom 1,536 well microtiter plates so that the final concentrations of substrates in the assay were 0.1 mM ADP and 0.5 mM PEP. 23 nL of compound were delivered by a pin tool and 1 uL of enzyme mix in assay buffer (4 degree Celsius) was added. Plates were incubated at room temperature for 1 hour. Two uL of detection mix (Kinase-Glo, Promega; at 4 degree Celsius protected from light) was added and luminescence read by a ViewLux (Perkin Elmer) at 5 second exposure/plate. Data were normalized to the uninhibited and AC100 inhibition (no enzyme). To monitor activation, the first column contained a titration of the activator, NCGC00031955-01 (16-point 1:2 dilutions in duplicate starting at 57 uM) and the first 16 rows of column 4 contained 57 uM of NCGC00031955-01.
Further: nearly all actives have a fitted effect of over 55% in size.
On the % scale 0 is the no-effect control and ±100 the full control effect; potency means the concentration at half of the fitted maximal effect; tags describe the fitted curve by direction and shape.

Chain of UniProt P14618 (P14618 whole entry, looked up, canonical isoform): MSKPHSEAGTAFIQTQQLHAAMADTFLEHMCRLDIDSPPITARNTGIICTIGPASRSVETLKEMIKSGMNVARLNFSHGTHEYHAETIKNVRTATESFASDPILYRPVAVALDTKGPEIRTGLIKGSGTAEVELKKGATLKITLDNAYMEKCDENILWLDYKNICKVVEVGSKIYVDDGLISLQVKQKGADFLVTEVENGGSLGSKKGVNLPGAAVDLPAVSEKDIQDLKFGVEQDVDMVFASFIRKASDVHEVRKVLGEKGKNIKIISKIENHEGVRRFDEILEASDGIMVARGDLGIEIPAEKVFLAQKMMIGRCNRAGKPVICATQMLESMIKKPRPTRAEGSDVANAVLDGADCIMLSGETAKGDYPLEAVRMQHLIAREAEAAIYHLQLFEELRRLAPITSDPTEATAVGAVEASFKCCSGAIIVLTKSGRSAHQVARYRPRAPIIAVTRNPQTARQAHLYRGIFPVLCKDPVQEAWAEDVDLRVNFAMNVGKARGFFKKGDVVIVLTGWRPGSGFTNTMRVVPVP

Potency, active:
C(=N\n1cnnc1)/c1cccn1-c1ccccc1 28.2 µM, Cc1ccc(CNC(=O)c2coc(=O)c3ccccc23)o1 12.6 µM, Cc1cc(C)c2[nH]c(=O)c(C(c3nnnn3C(C)(C)C)N3CCN(C(=O)c4ccco4)CC3)cc2c1 (stereo not given) 11.2 µM, CN1CCc2nc(SCC(=O)Nc3cccc(F)c3)c(C#N)c(-c3cccs3)c2C1 17.8 µM, O=C(CSc1ccccc1)N1CCN(S(=O)(=O)c2ccccc2F)CC1 3.16 µM, CCOC(=O)c1c(-c2ccc(C)o2)csc1NC(=S)NC(=O)c1ccccc1Br 3.16 µM, Cc1cccc(CSc2nc3c(c(=O)n2C)SCC3)c1 15.8 µM, COc1ccccc1CN(Cc1cc2cc3c(cc2[nH]c1=O)OCCO3)Cc1nnnn1Cc1ccco1 20 µM, CC(=O)Nc1sc(N/N=C/c2ccccc2F)nc1-c1ccc(C)cc1 10 µM, Cc1cc(C2=CC(C)(c3cc(C)oc3C)Nc3nc(C(F)(F)F)nn32)c(C)o1 (stereo not given) 22.4 µM, Cc1cc(NC(=O)CSc2nnc(-c3ccc(Cl)s3)o2)no1 2.51 µM

Potency, inconclusive:
O=C1COc2ccc(C(=O)CSc3nnnn3-c3ccccc3)cc2N1 20 µM [rising, partial curve], Clc1ccc2c(N3CCCC3)ccnc2c1 17.8 µM [rising, partial curve], Cc1oc(-c2ccc(Cl)cc2)cc1C(=O)/C(C#N)=C/Nc1ccccc1 0.447 µM [rising, full curve], Cc1c(OC(C)C(=O)N[C@H](C(=O)O)c2ccccc2)ccc2c3c(c(=O)oc12)CCCC3 (stereo not given in full) 0.0071 µM [rising, full curve, poor fit], CCNc1nc(NC(C)C)nc(Oc2ccc(/C=N/O)cc2)n1 15.8 µM [rising, partial curve], CCN(CC)CCCN1C(=O)C(=O)/C(=C(/O)c2ccc(Cl)cc2)C1c1ccccn1 (stereo not given) 7.94 µM [rising, single point], O=C(CC(Nc1ccc(F)cc1)C(=O)OCC(=O)c1cccs1)c1ccccc1 (stereo not given) 1.12 µM [rising, partial curve], COC(=O)C(CC(=O)c1ccc(Br)cc1)n1ccnc1 (stereo not given) 1.12 µM [rising, full curve], COC(=O)Cn1c(=O)c2c(nc3n2CC(C)CN3c2ccc(C)c(C)c2)n(C)c1=O (stereo not given) 39.8 µM [rising, single point], COc1ccc(C2CC(C(F)(F)F)n3nc(C(=O)O)c(Cl)c3N2)cc1OC (stereo not given) 0.158 µM [rising, full curve, poor fit], COC(=O)C1=C(C)NC(C)=C(C(=O)OC)C1C(=O)OCC(=O)Nc1ccc(C(C)=O)cc1 35.5 µM [rising, single point], N#CC(c1ccc(O)cc1)c1ncc(C(F)(F)F)cc1Cl (stereo not given) 22.4 µM [rising, single point], Cc1cc(C)c2[nH]c(=O)c(CN(Cc3ccco3)C(=O)C3CCCO3)cc2c1 (stereo not given) 35.5 µM [rising, single point], CCOC(=O)c1c(-c2ccc(C)o2)csc1NC(=S)NC(=O)c1cccs1 11.2 µM [rising, partial curve], Fc1ccccc1COc1ccc(/C=N/n2cnnc2)cc1 22.4 µM [rising, single point], CCOC(=O)C1=C(CNCc2ccc(F)cc2)NC(=O)NC1c1cccc([N+](=O)[O-])c1 (stereo not given) 6.31 µM [rising, single point], CCN=C1SC(C(=O)NCCc2ccccc2)CC(=O)N1CC (stereo not given) 0.708 µM [rising, full curve, poor fit], COc1ccc(-c2nc(CN3CCN(c4ccccc4OC)CC3)c(C)o2)cc1 31.6 µM [rising, single point], CCOc1ccc(-c2csc(NC(=O)CSC3=NC(=O)CN3C(C)=O)n2)c2ccccc12 12.6 µM [rising, partial curve], CCCCN=C1NN=C(c2ccc(C)c(C)c2)CS1 25.1 µM [rising, single point], COc1cccc(Nc2nc(-c3ccc(O)cc3)cs2)c1 0.891 µM [rising, single point], Cc1ccc(CCNS(=O)(=O)c2cc3c(cc2C)NC(=O)CO3)cc1 35.5 µM [rising, single point], CCN1C(=O)N/C(=C/c2ccc(C)o2)C1=O 7.94 µM [rising, full curve], CCOC(=O)c1c(NC(=O)CCc2ccc(CC)o2)sc(C)c1C 22.4 µM [rising, single point], COc1ccc([N+](=O)[O-])cc1NC(=O)COC(=O)c1ccc(O)cc1 6.31 µM [rising, single point], Cn1c(CN2CCCCC2)nc2cc([N+](=O)[O-])ccc21 31.6 µM [rising, single point], Cc1ccc(/C=C/C(=O)Nc2cc(=O)n(C)c(=O)n2C)o1 2.24 µM [rising, full curve], COc1nc(C)nc2c1sc(=S)n2C 1.58 µM [rising, full curve, poor fit], CCOc1ccc(S(=O)(=O)N2CCC(C(=O)NCc3ccco3)CC2)cc1 15.8 µM [rising, partial curve], Clc1ccc2c(NCc3ccccc3)ccnc2c1 15.8 µM [rising, partial curve], O=C1NCCCC2c3cc(O)c4ccccc4c3OC12N1CCCCC1 (stereo not given) 17.8 µM [rising, partial curve], Cc1nc(SCC(N)=O)[nH]c(=O)c1CCC(C)C 22.4 µM [rising, single point], O=C(Cc1cccc2ccccc12)OCn1nnc2ccccc2c1=O 7.08 µM [rising, single point], O=C(CSc1nc2ccccc2c(=O)n1Cc1ccco1)NCc1ccco1 31.6 µM [rising, single point], CCc1ccccc1NC(=S)NCc1ccc2c(c1)OCO2 1.12 µM [rising, full curve], Fc1ccccc1CNC(=S)Nc1ccc(Cl)cc1 39.8 µM [rising, single point], O=C(Nc1cccc(C(=O)O)c1)/C(=C\c1ccc2c(c1)OCO2)NC(=O)c1ccco1 25.1 µM [rising, single point], COc1ccc2ccccc2c1C(=O)/C=C\c1ccoc1 15.8 µM [rising, partial curve], OC1CCCN(c2c3c(nc4cc(-c5cccc(F)c5)nn24)CCCC3)C1 (stereo not given) 39.8 µM [rising, single point], O=C1OCc2cc(NS(=O)(=O)c3cccs3)ccc21 20 µM [rising, partial curve, poor fit], CCC(C)(C)n1nnnc1C(c1ccc(O)c(OC)c1)N1CCc2ccccc2C1 (stereo not given) 11.2 µM [rising, partial curve], CC(C)(Oc1ccc(CCNC(=O)c2ccc(-c3ccc(Cl)cc3)o2)cc1)C(=O)O 35.5 µM [rising, single point], CCCc1nnc(NS(=O)(=O)c2ccc(OC)cc2)s1 39.8 µM [rising, single point]

activation, inactive:
CCCCCn1c(=O)c(-c2nc3ccccc3[nH]2)c(O)c2ccccc21 -11.7%, O=C(O)c1cc(-c2ccco2)nn1-c1ccc(Cl)cc1 -19.8%, COc1ccc(C2(CNC(=O)c3cccc([N+](=O)[O-])c3)CCOCC2)cc1OC -5.31%, COc1ccc(-c2nnc(SC(C)C(=O)Nc3cccc(Cl)c3)o2)cc1 (stereo not given) 21.6%, CC(Cc1ccccc1)NC(=O)c1cc2ccccc2o1 (stereo not given) 0.726%, CN(Cc1nc(Cc2cccc(F)c2)no1)CC1CCOCC1 -0.11%, O=C(Nc1ccc(-c2nc3ccccc3s2)c(O)c1)C1=COCCO1 2.43%, COc1cc(S(=O)(=O)Nc2ccc(C)cc2)ccc1N=Cc1c(C)c(C#N)c(=O)n(C)c1O -7.47%, N#CC1=C(N)Oc2cc(N)ccc2C1c1ccc(F)cc1F (stereo not given) 3%, Cc1sc(N/N=C/c2cccnc2)nc1-c1ccccc1 7.54%, COc1cc(/C=C/[N+](=O)[O-])ccc1OC(=O)c1cc2ccccc2oc1=O -0.469%, CCn1c(C)nc2cc(C(=O)NNC(=S)Nc3ccc(Cl)cc3)ccc21 -10.4%, COC(=O)[C@@]1(Cc2ccccc2)[C@H]2c3cc(C(=O)N4CCCC4)n(C)c3C[C@H]2CN1C(=O)c1ccccc1 -0.0725%, O=c1oc2ccccc2c(O)c1Cc1cc(Cl)c2cccnc2c1O 1.29%, COc1cc2nc(C3CCC3)nc(N3CCN(c4ccccc4OC)CC3)c2cc1OC 5.21%, Cc1nc2c3cc(Cl)ccc3n(CCN3CCCCC3)c2s1 -5.21%, COc1cccc2cc(C(C)N(CCCN3CCOCC3)C(=S)Nc3cccc(C)c3C)oc12 (stereo not given) -7.67%, Cc1cc(NC(=O)CSc2nc(-c3cccs3)cc(C(F)(F)F)n2)no1 -4.96%, Cc1ccc(-c2nc3ccccc3c(=O)n2NC(=O)c2cccs2)cc1 -12.2%, Cn1c(NCCCN2CCOCC2)nc2c1c(=O)n(Cc1ccc(Cl)cc1)c(=O)n2C -1.14%, C(=C\c1ccccc1)/C=N/N1CCN(Cc2ccccc2)CC1 -1.1%

From PubChem BioAssay AID1631 (National Center for Advancing Translational Sciences (NCATS), 2009)
